This is an account of results in PubChem BioAssay AID2202238 (Ras Initiative Chemistry Research Team, Frederick National …, 2025).

This assay has as its target GTPase KRas (Homo sapiens) (UniProt P01116). Kind of assay: Covalent labelling of cysteine mutants by fragments, read by mass spectrometry (AID 2202238). Details: protein at 5 µM with 500 µM competing thiol for 1.5 h. Conditions: KRAS G12D cysteine mutants, disulfide tethering, MALDI-TOF labeling, stronger effect = higher value, fragment at 500 µM.
Sequence of UniProt P01116 (P01116 whole entry, looked up, the tested form may be a part): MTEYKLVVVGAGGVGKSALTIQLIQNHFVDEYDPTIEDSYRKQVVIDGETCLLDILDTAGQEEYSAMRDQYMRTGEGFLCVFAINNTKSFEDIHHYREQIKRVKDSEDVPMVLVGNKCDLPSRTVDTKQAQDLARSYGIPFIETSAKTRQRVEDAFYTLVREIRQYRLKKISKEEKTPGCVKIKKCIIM
The mark [1] stands for this setting: measured here: G60C mutant labeling.
Where [2] appears, read: measured here: G75C mutant labeling.
Setting [3] is: measured here: H94C mutant labeling.
Setting [4] is: measured here: I36C mutant labeling.
[5] abbreviates: measured here: L120C mutant labeling.
Where [6] appears, read: measured here: M67C mutant labeling.
[7] abbreviates: measured here: M72C mutant labeling.
The mark [8] stands for this setting: measured here: N26C mutant labeling.
[9] abbreviates: measured here: N86C mutant labeling.
The mark [10] stands for this setting: measured here: P121C mutant labeling.
The mark [11] stands for this setting: measured here: S122C mutant labeling.
The mark [12] stands for this setting: measured here: S136C mutant labeling.

The other results are listed elsewhere or left out. Further columns of the screen follow, without active or inactive calls.

As to `CC1Cn2nc(C(=O)NCCS)cc2C(=O)N1` (stereo not drawn), the percent labeling by setting is: under setting [1], 27.3%; under setting [2], 15.8%; under setting [3], 25.9%; under setting [4], 21.3%; under setting [5], 39.4%; under setting [6], 31.4%. Moreover, the percent labeling runs as follows: under setting [7], 30.4%; under setting [8], 35.7%; under setting [9], 25.2%; under setting [10], 25.9%; under setting [11], 30.5%; under setting [12], 44.6%.
Take `O=C(CCCc1ncc(-c2ccccc2)o1)NCCS`: the percent labeling is 30.5% under setting [1]; 19% under setting [2]; 24.8% under setting [3]; 17.1% under setting [4]; 24.6% under setting [5]; 40.2% under setting [6]. Also, the percent labeling reads like this: under setting [7], 25.9%; under setting [8], 37.1%; under setting [9], 14.7%; under setting [10], 20.7%; under setting [11], 19%; under setting [12], 29.9%.
As for `Cn1cc([C@@H]2OCC[C@H]2C(=O)NCCS)cn1`, the percent labeling under setting [1] turned out to be 16.2%; the percent labeling under setting [2] came out at 7.1%; the percent labeling under setting [3] came out at 23.4%; the percent labeling under setting [4] came out at 23.5%; the percent labeling under setting [5] was determined as 22.2%; the percent labeling under setting [6] is 27.9%. Moreover, the percent labeling runs as follows: under setting [7], 9.9%; under setting [8], 27.3%; under setting [9], 17.6%; under setting [10], 28.1%; under setting [11], 24.5%; under setting [12], 38.7%.
As for `O=C(CCc1nnc2ccc(Cl)nn12)NCCS`, the percent labeling by setting is: under setting [1], 29.3%; under setting [2], 13.4%; under setting [3], 30.4%; under setting [4], 23%; under setting [5], 43.2%; under setting [6], 24.6%. Moreover, the percent labeling under setting [7] stood at 16.2%; the percent labeling under setting [8] worked out at 32.4%; the percent labeling under setting [9] turned out to be 25.2%; the percent labeling under setting [10] amounted to 32%; the percent labeling under setting [11] came to 23.1%; the percent labeling under setting [12] was 29.6%.
Regarding `Cc1nc(COc2cccc(C(=O)NCCS)c2)no1`, the percent labeling is, setting by setting: under setting [1], 39.5%; under setting [2], 21.5%; under setting [3], 42.2%; under setting [4], 29.8%; under setting [5], 43.9%; under setting [6], 32.9%. The percent labeling turned out to be 54.3% under setting [7]; 44.8% under setting [8]; 28% under setting [9]; 27.5% under setting [10]; 28.3% under setting [11]; 48.3% under setting [12].
`O=C(NCCS)c1cc2c(Br)cccc2cn1`: the percent labeling reads like this: under setting [1], 29%; under setting [2], 23.3%; under setting [3], 18.8%; under setting [4], 11%; under setting [5], 16.8%; under setting [6], 17.7%. The percent labeling was 57.9% under setting [7]; 29.1% under setting [8]; 13% under setting [9]; 17.8% under setting [10]; 9% under setting [11]; 18.6% under setting [12].
Consider `Cc1ccc(NC(=O)C2(CNC(=O)CCS)CCCC2)cc1C`, for which the percent labeling is 10% under setting [2]; 28.1% under setting [3]; 21.4% under setting [4]; 18.3% under setting [5]; 22.7% under setting [6]; 21.6% under setting [7]. Besides, the percent labeling is, setting by setting: under setting [9], 16.9%; under setting [10], 23%; under setting [11], 19.6%; under setting [12], 34.9%.
Take `COc1cc(CCNC(=O)CCS)ccc1O`: the percent labeling worked out at 13.1% under setting [2]; 34.5% under setting [3]; 43.2% under setting [4]; 30.9% under setting [5]; 34% under setting [6]; 29.3% under setting [7]. For the same molecule, the percent labeling reads like this: under setting [9], 27.5%; under setting [10], 39.6%; under setting [11], 37.5%; under setting [12], 57.6%.
On to `O=C(CCS)Nc1cccc(CN2CCCC2=O)c1`, for which the percent labeling by setting is: under setting [2], 13.7%; under setting [3], 40.9%; under setting [4], 36.9%; under setting [5], 34.6%; under setting [6], 33.3%; under setting [7], 33.5%. Also, the percent labeling runs as follows: under setting [9], 29%; under setting [10], 32%; under setting [11], 34%; under setting [12], 54.6%.
Take `O=C(CCS)NCCn1ccc(C(F)(F)F)n1`: the percent labeling came to 10.6% under setting [2]; 31.4% under setting [3]; 33.2% under setting [4]; 33.1% under setting [5]; 29% under setting [6]; 24.5% under setting [7]. The percent labeling is, setting by setting: under setting [9], 28.3%; under setting [10], 32.7%; under setting [11], 37.2%; under setting [12], 47%.
As for `Cc1nc(-c2cccc(C(=O)NCCS)c2)cs1`, the percent labeling reads like this: under setting [1], 32%; under setting [2], 13.3%; under setting [3], 23%; under setting [4], 14.5%; under setting [5], 22.9%; under setting [6], 16.7%. This molecule also registered a percent labeling under setting [7] of 50.3%; a percent labeling under setting [8] of 41.1%; a percent labeling under setting [9] of 15.7%; a percent labeling under setting [10] of 20%; a percent labeling under setting [11] of 15.3%; a percent labeling under setting [12] of 28.3%.
`CC1(c2cccc(C(=O)NCCS)c2)NC(=O)NC1=O` (stereo not drawn) came in with a percent labeling under setting [1] of 42.3%; a percent labeling under setting [2] of 20.2%; a percent labeling under setting [3] of 43.4%; a percent labeling under setting [4] of 28.2%; a percent labeling under setting [5] of 48.4%; a percent labeling under setting [6] of 40.2%. The percent labeling under setting [7] stood at 50.4%; the percent labeling under setting [8] is 50.8%; the percent labeling under setting [9] stood at 44.6%; the percent labeling under setting [10] was 34.6%; the percent labeling under setting [11] stood at 42.2%; the percent labeling under setting [12] came out at 51.6%.
For `Cn1c(C(=O)NCCS)c(Cl)c2ccccc21`, the percent labeling runs as follows: under setting [1], 30.5%; under setting [2], 20.5%; under setting [3], 12.4%; under setting [4], 7.6%; under setting [5], 11.4%; under setting [6], 8.3%. Also, the percent labeling was 49.4% under setting [7]; 24.6% under setting [8]; 10.5% under setting [9]; 21.4% under setting [10]; 9.1% under setting [11]; 18.4% under setting [12].
Turning to `O=C(NCCS)c1ccc(Cn2cc(Cl)cn2)o1`, the percent labeling reads like this: under setting [1], 36.6%; under setting [2], 22.9%; under setting [3], 34.1%; under setting [4], 23.3%; under setting [5], 38.4%; under setting [6], 43.3%. Further, the percent labeling came to 42.7% under setting [7]; 39.5% under setting [8]; 26% under setting [9]; 25.1% under setting [10]; 31.4% under setting [11]; 47.2% under setting [12].
Regarding `NC(=O)c1cc(NC(=O)CCS)cc(C(N)=O)c1`, the percent labeling by setting is: under setting [2], 17.4%; under setting [3], 26.7%; under setting [4], 38.2%; under setting [5], 33.9%; under setting [6], 30.3%; under setting [7], 34.3%. The percent labeling under setting [9] was 22.3%, the percent labeling under setting [10] turned out to be 35.1%, the percent labeling under setting [11] was 43.8% and the percent labeling under setting [12] was 46%.
`O=C(CCS)Nc1cccc(Cn2cccnc2=O)c1`: the percent labeling by setting is: under setting [2], 8.2%; under setting [3], 27.5%; under setting [4], 32.4%; under setting [5], 28.1%; under setting [6], 31.7%; under setting [7], 24.4%. Moreover, the percent labeling is 24.4% under setting [9], 23.2% under setting [10], 30.4% under setting [11] and 49.9% under setting [12].
Turning to `CCOc1ccc2ccccc2c1C(=O)NCCS`, the percent labeling stood at 65.3% under setting [1]; 23% under setting [2]; 37.1% under setting [3]; 20.1% under setting [4]; 27.3% under setting [5]; 27.2% under setting [6]. Moreover, the percent labeling is, setting by setting: under setting [7], 40.7%; under setting [8], 40.5%; under setting [9], 19.9%; under setting [10], 29.1%; under setting [11], 17.8%; under setting [12], 36.8%.
Take `O=C(CCS)NCc1ccn(-c2c(F)cccc2F)n1`: the percent labeling was determined as 14.7% under setting [2]; 41% under setting [3]; 38.5% under setting [4]; 43.2% under setting [5]; 39.4% under setting [6]; 36.6% under setting [7]. In addition, the percent labeling by setting is: under setting [9], 36.3%; under setting [10], 36.2%; under setting [11], 43.2%; under setting [12], 55.5%.
On to `COC(=O)C(Cc1cn(C)nc1C)NC(=O)CCS` (stereo not drawn), for which the percent labeling turned out to be 6% under setting [2]; 21.4% under setting [3]; 23.7% under setting [4]; 23.9% under setting [5]; 35.3% under setting [6]; 9% under setting [7]. Besides, the percent labeling runs as follows: under setting [9], 6.3%; under setting [10], 27.4%; under setting [11], 27.1%; under setting [12], 39.3%.
As to `O=C(Cc1csc(-c2cnccn2)n1)NCCS`, the percent labeling by setting is: under setting [1], 44.9%; under setting [2], 18.9%; under setting [3], 32.7%; under setting [4], 31.4%; under setting [5], 57.5%; under setting [6], 36.9%. This molecule also showed a percent labeling under setting [7] of 42.7%; a percent labeling under setting [8] of 41.1%; a percent labeling under setting [9] of 30.5%; a percent labeling under setting [10] of 34.6%; a percent labeling under setting [11] of 32%; a percent labeling under setting [12] of 43.9%.
For `CCC(OC1CCCC(C)C1)C(=O)NCCS` (stereo not drawn), the percent labeling amounted to 40.5% under setting [1]; 14.9% under setting [2]; 27.1% under setting [3]; 13.5% under setting [4]; 28.8% under setting [5]; 21.9% under setting [6]. In addition, the percent labeling was determined as 17.5% under setting [7]; 28.3% under setting [8]; 17.5% under setting [9]; 22.1% under setting [10]; 20.6% under setting [11]; 44.3% under setting [12].
In the case of `O=C(CCn1sc2ccccc2c1=O)NCCS`, the percent labeling is, setting by setting: under setting [1], 19.6%; under setting [2], 43.2%; under setting [3], 16.8%; under setting [4], 7.3%; under setting [5], 15%; under setting [6], 8.2%. Besides, the percent labeling under setting [7] worked out at 12.5%; the percent labeling under setting [8] worked out at 8.7%; the percent labeling under setting [9] is 7.8%; the percent labeling under setting [10] came out at 9.3%; the percent labeling under setting [11] came out at 11.2%; the percent labeling under setting [12] was found to be 9.4%.
In turn, `CC(C)c1ccc2c(c1)CC[C@H]1[C@](C)(CNC(=O)CCS)CCC[C@]21C` displayed a percent labeling under setting [2] of 13.1%; a percent labeling under setting [3] of 80.6%; a percent labeling under setting [4] of 11.5%; a percent labeling under setting [5] of 6.3%; a percent labeling under setting [6] of 10.1%; a percent labeling under setting [7] of 18%. Besides, the percent labeling is, setting by setting: under setting [9], 5.3%; under setting [10], 9%; under setting [11], 4%; under setting [12], 31.1%.
